# In publication PMC10668032:
# The other results are listed elsewhere or left out. At the low end of the ranking the order means little.
# Target: SIX1 homeodomain (reference allele) (UniProt Q15475)
# Assay: universal protein binding microarray
# Conditions: Universal all-10-mer PBM (8x60K, AMADID 030236), 300 nM GST-tagged protein, Alexa Fluor 488 anti-GST; buffer, salt, pH and temperature not stated; high values mean tight binding; most listed sequences are background and not binding sites; double strand, one strand shown
row,Sequence,binding signal [E-score]
1,CCGCTGGC,-0.11
2,AGCTACGA,-0.261
3,ACGCAAAC,-0.0502
4,ATTGTTTA,-0.142
5,GAACCTTC,-0.173
6,ACATCGAT,0.144
7,AATTGGTA,0.00128
8,CCAGGCCA,-0.248
9,AGCTAGTG,-0.0267
10,AATTACGT,-0.301
11,CGGTTGAC,-0.174
12,AATCCGCC,0.212
13,GGTCTGCA,-0.135
14,CTTTGCTA,-0.159
15,CGCCGACG,-0.194
16,AAGGCTGC,-0.174
17,AAAAGTCG,-0.269
18,AATAAATC,-0.0374
19,TTCGAGAA,-0.122
20,CATAAAGA,-0.258
21,AGGATATA,0.346
22,CTCACTTA,-0.0385

row,Sequence,binding signal [E-score]
1,ATTAAGGC,-0.0426
2,GTGAAGAA,-0.134
3,AAGGAATG,-0.254
4,CTCGCATA,-0.0441
5,GCCATAAC,-0.287
6,GATGAAGC,0.0137
7,CTAGCCAG,-0.157
8,CATGAAGG,0.114
9,GAAAACCA,-0.145
10,CGCCATGA,-0.0245
11,AACGTACG,-0.332
12,CAAACCAA,-0.129
13,CCTTATTC,-0.15
14,CTTAGCGA,-0.0823
15,AACGATAA,-0.103
16,CACCTGGA,0.0132
17,CCGGGTCG,0.181
18,GGTTTTAA,0.0244
19,AGCATGAG,0.0375
20,ATCGTGCA,0.16
21,ATAGACAT,0.039
22,TCAAACCA,0.0903

row,Sequence,binding signal [E-score]
1,GGCGCATA,-0.022
2,AAGGCACG,-0.134
3,ACTTTACA,-0.0661
4,AGGTCGTG,0.0323
5,CCCTCATC,0.176
6,CTAGATAC,0.349
7,AATTGAGT,-0.0887
8,AGAGTCTG,-0.18
9,TGGGTACA,0.12
10,ATAGGATG,0.211
11,AGACTTGC,-0.0704
12,CACCGCAC,0.148
13,GACCCACC,-0.233
14,ACGGTGAG,-0.00796
15,TAATCAGA,0.148
16,CGTTACAG,-0.15
17,CTTTAAGA,0.0747
18,CGCCAGGC,-0.0956
19,ACTCACGG,-0.0937
20,GAGGCCCA,-0.401
21,CCGGGTCC,-0.0319
22,AATAATCG,0.0679

row,Sequence,binding signal [E-score]
1,CTTTTACC,-0.207
2,GTTCAGGA,0.141
3,CGCATAGA,0.0481
4,ACTAAGTA,-0.141
5,TCGCAGAA,-0.208
6,AAGTGTTA,-0.127
7,CTACCGGC,-0.154
8,CTGGTCCC,-0.121
9,CTAACGAC,-0.313
10,AGGCTGAA,-0.296
11,GGCCTTGA,-0.145
12,ACCCAGCA,-0.0349
13,AGAAACAG,-0.265
14,TCCGCCGA,0.252
15,ACAACCAC,-0.212
16,ATCGCCCC,0.253
17,GCACGTAC,-0.0659
18,CGATCGGA,0.24
19,ATTCAGAA,-0.157
20,GTCCGTTA,-0.151
21,TACCGACA,0.134
22,AGTCCTAC,0.047

row,Sequence,binding signal [E-score]
1,ACTAATTA,-0.0562
2,AGTAGTGC,-0.0785
3,GCACAACA,-0.124
4,ATTATCAG,0.168
5,GAGAACGC,-0.119
6,CACCATCC,0.195
7,CGAATACC,0.233
8,ATAAAGCC,-0.108
9,TACCTATA,0.289
10,GATAAGAC,0.0372
11,GTGCTTAA,-0.233
12,ATAGCAAA,-0.0457
13,GCATCAGC,-0.0428
14,GCCAATTA,-0.158
15,CACATACC,0.135
16,AAATAAAG,-0.0783
17,CAACTTGA,-0.0589
18,CGTCTGCC,0.051
19,GAGTTCCC,-0.249
20,TAAAACTA,0.0743
21,GGCTTCAC,-0.0619
